# Reference: the RNAGym collection of RNA variant scans (doi:10.1093/nar/gkz1192)
# Read counts are not given, so values of variants with three or more changes are uncertain.
# B1: CPEB3 Ribozyme (parent)
# chain: UAACAGGGGGCCACAGCAGAAGCGUUCACGUCGCAGCCCCUGUCAGAUUCUGGUGAAUCUGCGAAUUCUGCUGUAUAUCUC
# Variants of: B1
# Experiment: self-cleavage, relative activity (ratio to wild type); higher = more cleavage; in vitro, sequencing
# Summary of the method: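 Libraries of CPEB3 self-cleaving ribozyme mutants came from rounds of error-prone PCR and carried barcodes, which DNA sequencing matched to variants. In vitro transcription used T7 RNA polymerase at 37°C for 5 hours, with a further 15 min in DNase I before EDTA stopped the reaction; the ribozymes cleaved during both steps. The RNA was reverse transcribed with template switching and sequenced on Illumina. Relative activity is the cleaved/total read fraction of a variant divided by that of the unmutated ribozyme, averaged over three batches with at least 5 reads.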
row,Variant,self-cleavage
1,UAGCAGGGGGCCACAGCAGAAGCGUUCACGUCGCAGCCCCUGUCAGAUUCUGGAGAAUCUGCGUAUUCAGCUGUAUAUCUC [A3G U54A A64U U69A],0.53
2,UAGCAGGGGGCCACAGCAGAAGCGUUCACGUCGCAGCCCCUGUCAGAUUCUGGUGAAUCUGCGAAUUCUGCAGUUUAUCUC [A3G U72A A75U],0.96
3,UAGCAGGGGGCCACAGCAGAAGCGUUCACGUCGCAGCCCCUGUCAGAUUCUGGUGAACCCGCGGACUCUGCUGUAUAUCUC [A3G U58C U60C A64G U66C],0.32
4,UAGCAGGGGGCCACAGCAGAAGCGUUCACGUCGCAGCCCCUGUCAGAUUCUGGUGAAUCAGCGAAUUCUGCUGUAUACCUC [A3G U60A U78C],0.72
5,UAGCAGGGGGCCACAGCAGAAGCGUUCACGUCGCAGCCCCUGUCAGAUUCUGGUGAAUCAGCGAAUUCUGCUGUAUAGCUC [A3G U60A U78G],0.81
6,UAGCAGGGGGCCACAGCAGAAGCGUUCACGUCGCAGCCCCUGUCAGAUUCAGGUGAAUCUGCGAAUUCCGCUGUAUAUCUC [A3G U51A U69C],0.83
7,UAGCAGGGGGCCACAGCAGAAGCGUUCACGUCGCAGCCCCUGUCAGAUCCUGGUGAAUCGGCGAAUUCUGCUGUAUAUCUC [A3G U49C U60G],0.14
8,UAGCAGGGGGCCACAGCAGAAGCGUUCACGUCGCAGCCCCUGUCAGAUUCUGGUGAAACCGCGAAUUCAGCUGUGUAUCUC [A3G U58A U60C U69A A75G],0.27
9,UAGCAGGGGGCCACAGCAGAAGCGUUCACGUCGCAGCCCCUGUCAGAUUCUGGUGAAUCUGCGAAUCCUGCAGUAUAUCUC [A3G U67C U72A],0.29
10,UAUCGGGGGGCCACAGCAGAAGCGUUCACGUCGCUGCCCCUGUCAGAUUCUGGUGAAUCCGCGGAUUCUGCUGCACAUCUC [A3U A5G A35U U60C A64G U74C U76C],0.16
11,UAGCAGGGGGCCACAGCAGAAGCGUUCACGUCGCAGCCCCUGUCAGAUUCUGGCGAAACUGCGAAUACUGCUGUACAUCUC [A3G U54C U58A U67A U76C],0.14
12,UAGCAGGGGGCCACAGCAGAAGCGUUCACGUCGCAGCCCCUGUCAGAUUCUGGUGAAUCUGCGAAUUCCGCUGUAUAUCCC [A3G U69C U80C],0.5
13,UAGCAGGGGGCCACAGCAGAAGCGUUCACGUCGCAGCCCCUGUCAGAUUCAGGUGUAUCUGCGAAUUCUGCUGUAUAUCUC [A3G U51A A56U],0.7
14,UAGCAGGGGGCCACAGCAGAAGCGUUCACGUCGCAGCCCCUGUCAGAUUCUGGCGGAUCUGCGAAUUCUGCUGUAUACCUC [A3G U54C A56G U78C],0.37
15,UAGCAGGGGGCCACAGCAGAAGCGUUCACGUCGCAGCCCCUGUCAGAUUCUGGUGAAUCCGCGAACUCUGCUGUAUAUCUC [A3G U60C U66C],0.4
16,UAGCAGGGGGCCACAGCAGAAGCGUUCACGUCGCAGCCCCUGUCAGAUUCAGGUGAGUCUGCGAAUUCUGCUGUAUAUCUC [A3G U51A A57G],0.5
17,UAGCAGGGGGCCACAGCAGAAGCGUUCACGUCGCAGCCCCUGUCAGAUUCUGGUGAAUCGGCGAAUUCUGCUGUACAUCAC [A3G U60G U76C U80A],0.65

row,Variant,self-cleavage
1,UAGCAGGGGGCCACAGCAGAAGCGUUCACGUCGCAGCCCCUGUCAGAUCCUGGUGAAUCUGCGAAUUCUGCUGUAUACCUC [A3G U49C U78C],0.81
2,UAGCAGGGGGCCACAGCAGAAGCGUUCACGUCGCAGCCCCUGUCAGAUUCUGGAGAAUCUGCGAAUUCUGCUGAAUAUCUC [A3G U54A U74A],1.22
3,UAGCAGGGGGCCACAGCAGAAGCGUUCACGUCGCAGCCCCUGUCAGAUCCUGGUGAAUCUGCGAAUUCUGCGGUAUAUCUC [A3G U49C U72G],0.42
4,UAGCAGGGGGCCACAGCAGAAGCGUUCACGUCGCAGCCCCUGUCAGAUUCAGGUGAAUCUGCGAAUUCUGCUGUGUAUCCC [A3G U51A A75G U80C],0.62
5,UAGCAGGGGGCCACAGCAGAAGCGUUCACGUCGCAGCCCCUGUCAGAUUCAGGUGAACCUGCGAAUUCUGCUGUAUAUCUC [A3G U51A U58C],0.32
6,UAUCCGGGGGCCACAGCAGAAGCGUUCACGUCGCAGCCCCUGUCAGAUUCUGGUGAAUCUGCGAGUUCUGCUGUAUAUCUC [A3U A5C A65G],0.37
7,UAGCAGGGGGCCACAGCAGAAGCGUUCACGUCGCAGCCCCUGUCAGAUUCUGGUGAAUCUGCGAAUCCAGCUGUAUAUCUC [A3G U67C U69A],0.25
8,UAGCAGGGGGCCACAGCAGAAGCGUUCACGUCGCAGCCCCUGUCAGAUUCUGGUGAAACUGCGUAUUAUGCUGUAUAUCUC [A3G U58A A64U C68A],0.14
9,UAGCAGGGGGCCACAGCAGAAGCGUUCACGUCGCAGCCCCUGUCAGAUCCUGGUGAAUCUGCGAAUACUGCUGUAUAUCUC [A3G U49C U67A],0.5
10,UAGCAGGGGGCCACAGCAGAAGCGUUCACGUCGCAGCCCCUGUCAGAUUCUGGUGAAUCCGCGAAUUCUGCAGUAUAUCUC [A3G U60C U72A],0.52
11,UAGCAGGGGGCCACAGCAGAAGCGUUCACGUCGCAGCCCCUGUCAGAUUCUGGUGAACCUGCGAAUACUGCCGUAUAUCUC [A3G U58C U67A U72C],0.2
12,UAGCAGGGGGCCACAGCAGAAGCGUUCACGUCGCAGCCCCUGUCAGAUUCUGGUGAAUCCGCGAUUUCUGCUGUAUAUCUC [A3G U60C A65U],0.24
13,UAGCAGGGGGCCACAGCAGAAGCGUUCACGUCGCAGCCCCUGUCAGAUUCUGGCGAGUCUGCGAAUUCUGCAGUAUAACAC [A3G U54C A57G U72A U78A U80A],1.15
14,UAUCGGGGGGCCUCAGCAGAAGCGUUCACGUCGCAGCCCCUGUCAGAUUCUGGUGAAUCCGCGAAUUCUGCUGUAUAUCUC [A3U A5G A13U U60C],0.53
15,UAGCAGGGGGCCACAGCAGAAGCGUUCACGUCGCAGCCCCUGUCAGAUUCAGGUGAGACUGCGAAUUCUGCUGUAUAUCUC [A3G U51A A57G U58A],0.16
16,UAGCAGGGGGCCACAGCAGAAGCGUUCACGUCGCAGCCCCUGUCAGAUUCUGGCGAACCUGCGAAUUCUGCUGUGUAUCUC [A3G U54C U58C A75G],0.59
17,UAGCAGGGGGCCACAGCAGAAGCGUUCACGUCGCAGCCCCUGUCAGAUUCAUGUGAAUCAGCGAACUCUGCUGUAUAUCUC [A3G U51A G52U U60A U66C],0.35
